According to PubChem BioAssay AID256 (DTP/NCI, 2004):
This continues a long series; more values of the same kind are listed elsewhere. Inconclusive results and toxic doses are left out. The calls were made as follows: active = survival T/C of 150% or more; inactive = T/C below 125% in these data.

Tested on: CD2F1 mice, L1210 leukemia ip, survival T/C
Assay: NCI In Vivo Anticancer Drug Screen. Data for tumor model L1210 Leukemia (intraperitoneal) in CD2F1 (CDF1) mice
Details: higher = longer survival
Method: The antitumor activity of compounds was measured in mice bearing transplantable tumors. Survival or tumor size were measured and the results are expressed as the measurement made in the treated group (T) divided by the measurement made in the vehicle treated control group (C). The tumor model used in this assay is L1210 Leukemia (intraperitoneal) in CD2F1 (CDF1) mice

Measured: T/C

NC(C/[N+]([O-])=N/O)C(=O)O (stereo not given)
inactive: endpoint: mean survival time, dose: 9.38 mg/kg/injection, schedule: Q01DX009 (ip), vehicle: alkali diluted with saline 111 % of control | endpoint: mean survival time, dose: 9.4 mg/kg/injection, schedule: Q01DX009 (ip), vehicle: alkali diluted with saline 106 % of control | endpoint: mean survival time, dose: 28.13 mg/kg/injection, schedule: Q04DX003 (ip), vehicle: alkali diluted with saline 106 % of control | endpoint: mean survival time, dose: 112.5 mg/kg/injection, schedule: Q04DX003 (ip), vehicle: alkali diluted with saline 105 % of control | endpoint: mean survival time, dose: 225.0 mg/kg/injection, schedule: Q04DX003 (ip), vehicle: alkali diluted with saline 107 % of control | endpoint: median survival time, dose: 3.13 mg/kg/injection, schedule: Q01DX009 (ip), vehicle: water 105 % of control | endpoint: median survival time, dose: 6.25 mg/kg/injection, schedule: Q01DX009 (ip), vehicle: water 105 % of control | endpoint: median survival time, dose: 12.5 mg/kg/injection, schedule: Q01DX009 (ip), vehicle: water 110 % of control | endpoint: median survival time, dose: 25.0 mg/kg/injection, schedule: Q01DX009 (ip), vehicle: water 110 % of control | endpoint: median survival time, dose: 31.3 mg/kg/injection, schedule: Q04DX003 (ip), vehicle: water 111 % of control
